# Measurements from PMC4336329 (PLoS ONE, 2015).
# Among all 310,000 compounds or so, about 14,000 (4.5%) showed an effect of 50% or more. The effect is printed as a negative number. Some of the results follow.
# Molecular target: human ether-à-go-go-related gene (hERG) potassium channel (human, UniProt Q12809)
# Assay: primary screen, population patch clamp on CHO cells stably expressing hERG
# 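Also: peak tail current of the secondary pulse compared with the same well before compound.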
# Chain of human ether-à-go-go-related gene (hERG) potassium channel (Q12809 whole entry, looked up): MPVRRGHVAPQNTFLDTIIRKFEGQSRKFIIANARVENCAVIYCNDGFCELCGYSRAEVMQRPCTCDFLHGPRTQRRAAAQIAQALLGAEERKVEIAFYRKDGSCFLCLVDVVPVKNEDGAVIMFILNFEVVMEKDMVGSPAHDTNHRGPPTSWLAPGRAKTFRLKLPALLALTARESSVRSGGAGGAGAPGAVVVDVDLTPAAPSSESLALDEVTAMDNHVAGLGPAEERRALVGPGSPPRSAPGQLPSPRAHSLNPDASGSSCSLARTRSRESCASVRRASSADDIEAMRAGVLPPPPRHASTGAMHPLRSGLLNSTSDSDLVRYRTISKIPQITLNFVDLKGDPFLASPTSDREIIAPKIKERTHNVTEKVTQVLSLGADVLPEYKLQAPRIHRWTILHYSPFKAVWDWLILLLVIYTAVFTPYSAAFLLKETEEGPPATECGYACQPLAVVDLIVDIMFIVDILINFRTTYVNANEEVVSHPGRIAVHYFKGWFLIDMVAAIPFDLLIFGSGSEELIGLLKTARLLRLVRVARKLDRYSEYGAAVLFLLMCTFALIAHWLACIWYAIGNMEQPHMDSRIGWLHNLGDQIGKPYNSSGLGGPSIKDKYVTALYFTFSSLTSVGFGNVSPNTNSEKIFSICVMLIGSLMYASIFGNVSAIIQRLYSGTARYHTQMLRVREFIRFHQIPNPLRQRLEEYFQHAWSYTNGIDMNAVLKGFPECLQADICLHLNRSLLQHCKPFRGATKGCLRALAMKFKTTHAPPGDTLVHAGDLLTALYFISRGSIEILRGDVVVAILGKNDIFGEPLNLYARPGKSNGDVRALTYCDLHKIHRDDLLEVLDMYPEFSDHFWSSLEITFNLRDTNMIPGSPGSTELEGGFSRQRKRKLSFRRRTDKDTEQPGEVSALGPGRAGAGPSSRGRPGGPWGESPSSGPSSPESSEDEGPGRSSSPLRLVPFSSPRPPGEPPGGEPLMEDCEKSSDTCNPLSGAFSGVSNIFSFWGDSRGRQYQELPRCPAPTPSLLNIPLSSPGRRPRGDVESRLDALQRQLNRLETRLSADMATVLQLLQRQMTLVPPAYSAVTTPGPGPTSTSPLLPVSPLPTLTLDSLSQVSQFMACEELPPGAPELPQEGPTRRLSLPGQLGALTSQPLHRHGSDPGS
row,Structure (SMILES),"hERG current change (%, negative = inhibition) at 10uM"
1,CCc1ccccc1NC(=S)N(Cc1ccc(C(=O)O)cc1)Cc1ccc(OC)c(OC)c1,22%
2,COc1ccc(CCNC(=O)Cn2c(=O)n(-c3cc(F)ccc3F)c(=O)c3sccc32)cc1OC,-6.4%
3,O=C(NCCc1ccc(Cl)cc1)C1CC(=O)N(C2CCCC2)C1 (stereo not shown),4.17%
4,Cc1ccc(/C=C2\SC(=S)N(CCC(=O)NNS(=O)(=O)c3ccccc3)C2=O)cc1,16.5%
5,CS(=O)(=O)Nc1ccc(C(=O)N2CCCCC2)cc1,-3.35%
6,COc1ccc(OC)c(S(=O)(=O)NCc2cc(-c3ccccc3)no2)c1,17.6%
7,Cc1onc(-c2ccccc2)c1C(=O)N/N=C/c1c(F)cccc1Cl,4.94%
8,COc1ccccc1N1CCN(c2ccc(Cl)nn2)CC1,11.6%
9,O=C(COCc1cc(-c2ccco2)on1)NC1CCCCC1,3.18%
10,Cc1ccccc1C(=O)N1CCc2ccccc2C1,-0.92%
11,O=C(c1sc2cccc(F)c2c1Cl)N1CCN(c2ncccn2)CC1,-41.5%
12,COC(=O)c1ccccc1NC(=O)CSc1n[nH]c(CC(C)C)n1,6.11%
13,Cc1cccc(-n2c(SCC(=O)N3CCCC3)nnc2-c2ccccn2)c1C,6.05%
14,C#CCOCCOCCOCCNc1nc(N2CCN(C(=O)CCCCCCCCCCNC(=O)[C@H](CCC(=O)O)n3cc(CCCCCN)nn3)CC2)nc(N2CCN(C(=O)CCCCCCCCCCNC(=O)[C@@H]([C@H](C)O)n3cc(C)nn3)CC2)n1,20.1%
15,CN(CCC#N)S(=O)(=O)c1ccc2[nH]cc(C(=O)NCCc3ccccc3)c(=O)c2c1,-0.382%
16,O=P(Cc1cccc[n+]1[O-])(c1ccccc1)c1ccccc1,15.5%
17,O=C(Cn1ncc(Cl)c(Cl)c1=O)N1CCN(S(=O)(=O)c2ccc3ccccc3c2)CC1,-49.2%
18,COc1ccc(C(=O)COC(=O)CCCC(=O)NC2CCCCC2)cc1,2.77%
19,NS(=O)(=O)c1cccc(NC(=O)COC(=O)CCc2ccccc2)c1,17%
20,COC(=O)c1ccc(NC(=O)c2snnc2-c2ccccc2)cc1,2.66%
21,COc1ccc(COC(=O)c2n[nH]c3ccccc23)cc1F,-3.24%
22,Cc1ccc(N2C(=O)NC(NS(=O)(=O)c3ccccc3)(C(F)(F)F)C2=O)cc1C (stereo not shown),44.4%

row,Structure (SMILES),"hERG current change (%, negative = inhibition) at 10uM"
1,Cc1ccccc1NC(=O)N1CCCC1C(=O)NCc1ccccc1 (stereo not shown),11.1%
2,CCOC(=O)N/N=C1\CCc2ccccc21,4.57%
3,O=C(NCCc1ccc(F)cc1)c1ccc(NS(=O)(=O)c2ccc3[nH]c(=O)[nH]c3c2)cc1,19.9%
4,Cc1cccc(S(=O)(=O)NNC(=O)c2cc(-c3ccc(F)cc3)nc3ccccc23)c1,28.5%
5,Cc1ccc(C(=O)NC(C)c2ccccc2)cc1Br (stereo not shown),-11.8%
6,O=C(Cn1cnc2c(oc3ccccc32)c1=O)NCc1ccccc1,-19%
7,NS(=O)(=O)c1ccc(CNC(=O)c2cc(-c3cccnc3)nc3ccccc23)cc1,-12.5%
8,CC(=O)NNc1cc(C)nc(NS(=O)(=O)c2ccc(C)cc2)n1,15.8%
9,COc1ccc(CN2CCOC2=O)cc1OC,11.2%
10,COc1ccc(C(=O)Nc2cc(C)nn2-c2cccc(F)c2)cc1,0.834%
11,CCOC(=O)c1cn(CC)c2cc(Cl)c([N+](=O)[O-])cc2c1=O,-20.4%
12,O=S(=O)(O)c1cccnc1SCc1ccccc1,21.1%
13,O=C(NC(CO)Cc1ccc([N+](=O)[O-])cc1)C(Cl)Cl (stereo not shown),6.97%
14,O=C(Nc1cccc([N+](=O)[O-])c1)c1ccc(N2CCCC2=O)cc1,12%
15,CCCSc1nc(N2CCOCC2)c2c(c1C#N)CCCC2,0.781%
16,CCC1C=C(c2ccccc2)C=CN=C1N(CC)CC (stereo not shown),-61.6%
17,COc1ccc2c(c1)CCc1c(C(=O)NCCCn3ccnc3)noc1-2,-50.2%
18,Cc1c(/C=N/NC(=O)c2sc3ccccc3c2Cl)cnn1C,-3.8%
19,COc1ccc(N2CCN(C(=S)Nc3ccccc3)CC2)cc1,16.9%
20,CCN(CC)C(=O)CSc1nnc(NC(=O)CCc2ccccc2)s1,6.35%
21,O=C(NCc1ccccc1)c1ccc(CN(c2ccccn2)S(=O)(=O)c2ccccc2)cc1,-9.49%
22,COc1cc(/C=N/NC(=O)CCc2n[nH]c(=O)[nH]c2=O)cc(OC)c1OC,-17.1%

row,Structure (SMILES),"hERG current change (%, negative = inhibition) at 10uM"
1,CC(/C=C1\N=C(SCc2ccccc2Cl)SC1=O)=C\c1ccccc1,9.89%
2,Cc1ccc(C)c(Cn2nc(-c3ccccc3)ccc2=O)c1,3.4%
3,O=C(CCS(=O)(=O)c1ccc2c(c1)NC(=O)CO2)NCc1ccccc1,-2.28%
4,COc1ccc(C2CC2/C(C)=N/OC(=O)c2cccs2)cc1 (stereo not shown),-17.7%
5,Cc1nnsc1C(=O)NNc1ccc(C(C)C)cc1,10.9%
6,COC(OC)c1ccnc(-c2ccc(OC(=O)c3ccc(F)cc3)cc2)n1,9.87%
7,Cc1ccc(C(=O)CCNc2ccc(Br)cc2)o1,-0.536%
8,N#Cc1nc(Cc2cccc3ccccc23)oc1N1CCOCC1,-21.3%
9,CC(=O)Oc1ccc(-c2cccc(C(=O)NCCO)c2)cc1,16.7%
10,CCOc1ccc(N2CC(C(=O)NCc3ccccn3)CC2=O)cc1 (stereo not shown),5.2%
11,O=C(Nc1ccc(Cl)cc1)N1CCCN(Cc2ccc(F)cc2)C1,-75.4%
12,CCC(C)c1ccccc1OCCOCCN1CCCC1 (stereo not shown),-11.6%
13,O=C(CN1C(=O)/C(=C/c2ccccc2)SC1=S)NNC(=O)c1ccccc1O,3.37%
14,CC1OC23CCCCC2C(C#N)(C(=N)O3)C1(C#N)C#N (stereo not shown),14.3%
15,Cc1ccc(S(=O)(=O)N2CCN(C(=O)C3CC3C)CC2)c(C)c1 (stereo not shown),-22.8%
16,NNC(=O)C1CCCn2c1nc1sc3c(c1c2=O)CCCC3 (stereo not shown),-5.66%
17,Cc1nc(-c2ccccc2)cc(-c2ccccc2)n1,6.79%
18,c1ccc(SCc2nc3ccccc3s2)nc1,7.01%
19,Cc1cccc(NC(=O)Nc2cccc3ccccc23)c1,3.91%
20,Cc1sc2ncnc(SCC(=O)N3CCCC3)c2c1C,2.1%
21,CC(=O)c1cccc(S(=O)(=O)N2CCN(c3nc4cc(C)cc(C)c4cc3C#N)CC2)c1,4.7%
22,Cn1c(=O)c2[nH]c(N3CCN(c4ccccc4)CC3)nc2n(C)c1=O,8.36%

row,Structure (SMILES),"hERG current change (%, negative = inhibition) at 10uM"
1,CCNC(=O)C1CC(=O)N(c2ccc(OCC)cc2)C1 (stereo not shown),0.654%
2,CCc1cccc(CC)c1NC(=O)COC(=O)/C(C#N)=C/c1ccc(OC)cc1,-0.228%
3,COc1ccc(CCn2c(-c3ccco3)nc3nc4ccccc4nc32)cc1,-3.77%
4,O=C(NCCC1=CCCCC1)C1CCCN(c2nc3ccccc3o2)C1 (stereo not shown),-13.6%
5,COCc1c(C(=O)OC)nnn1-c1ccc(C(F)(F)F)cc1[N+](=O)[O-],6.31%
6,CCN(c1ccccc1)S(=O)(=O)c1ccc(Oc2ccc([N+](=O)[O-])cc2)nc1,-21%
7,O=C(NC1CC1)C1=C[C@@H](c2coc3ccccc3c2=O)C[C@@H](OCc2ccc(CO)cc2)O1,-20%
8,Cc1ccc(-n2c(O)c(/C=N/c3ncc(Br)cc3Br)c(=O)[nH]c2=O)cc1,2.79%
9,C=CCN1C(=O)/C(=C2/Sc3ccc(OC)cc3N2C)SC1=NCc1ccccc1,20.9%
10,COc1ccc(NC(=O)CCCC(=O)c2ccccc2)cc1OC,11.4%
11,Cc1ccc(N=CC=C2OC(C)(C)C(C)(C)O2)c(C)c1,7.04%
12,CC1(/[N+]([O-])=C\c2ccccc2F)CCCCC1=O (stereo not shown),8.53%
13,CCOC(=O)C1CCCN(Cc2cccc(Oc3ccccc3)c2)C1 (stereo not shown),0.824%
14,C/C(N)=C(/C#N)C(=O)CSc1nnc(Nc2ccccc2C)s1,-3.32%
15,NC(=O)c1cc(-c2ccncc2)nc2ccc(Cl)cc12,-11.8%
16,CCN1CCc2c(OCC(=O)N3CCCc4ccccc43)cccc2C1=O,-7.07%
17,CSCC[C@@H](C(=O)Nc1ccc2c(c1)OCCO2)N1Cc2ccccc2C1=O,-29.5%
18,COc1ccc(CN2CCN(C3CCC3)CC2CCO)c(F)c1 (stereo not shown),9.71%
19,c1ccc2c(-c3nc4ncccc4o3)cccc2c1,-5.31%
20,CC(C)N1CCc2c(sc(NC(=O)CN3C(=O)c4ccccc4C3=O)c2C(N)=O)C1.Cl,-47.5%
21,N#C/C(=C\c1ccc(-c2ccc(S(=O)(=O)N3CCOCC3)cc2)o1)C(=O)NC1CC1,-10.4%
22,Cc1c(OCc2ccccc2)c(=O)ccn1Cc1ccc(Cl)cc1,6.79%
